# From the supplement of paper PMC8728848
# This is one part of the list.
# B1: CFEM-SCL (Saccharomyces cerevisiae), O13547 (protein)
# chain: MRATTLLSSVVSLALLSKEVLATPPACLLACVAQVGKSSSTCDSLNQVTCYCEHENSAVKKCLDSICPNNDADAAYSAFKSSCSEQNASLGD
# How the values were obtained:
# Assay in all cases: glycan array binding signal (z-score within array); higher = stronger binding
# Details in all cases: glycan notation: IUPAC condensed, linker removed
# [1] = target: Fuc(a1-2)[GalNAc(b1-3)]Gal
# Procedure, shortened: (§1)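 The binding signal is a Z-score computed within each array and averaged over linkers. Arrays of the same protein sequence at different concentrations or buffers were also averaged together. Data originate from 3228 arrays in the Consortium for Functional Glycomics database, kept only where the protein sequence was available.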
# Fuc(a1-3)GlcNAc = target: Fuc(a1-3)GlcNAc
# Procedure, shortened: as §1
# [2] = target: Fuc(a1-3)[Gal(b1-4)]Glc6S
# Procedure, shortened: as §1
# [3] = target: Fuc(a1-3)[Gal(b1-4)]GlcNAc
# Procedure, shortened: as §1
# [4] = target: Fuc(a1-3)[Gal(b1-4)]GlcNAc(b1-2)Man
# Procedure, shortened: as §1
# [5] = target: Fuc(a1-3)[Gal(b1-4)]GlcNAc(b1-2)Man(a1-3)[Fuc(a1-3)[Gal(b1-4)]GlcNAc(b1-2)Man(a1-6)]Man(b1-4)GlcNAc(b1-4)GlcNAc
# Procedure, shortened: as §1
# [6] = target: Fuc(a1-3)[Gal(b1-4)]GlcNAc(b1-2)Man(a1-3)[Fuc(a1-3)[Gal(b1-4)]GlcNAc(b1-2)Man(a1-6)]Man(b1-4)GlcNAc(b1-4)[Fuc(a1-6)]GlcNAc
# Procedure, shortened: as §1
# [7] = target: Fuc(a1-3)[Gal(b1-4)]GlcNAc(b1-3)Gal(b1-3)[Fuc(a1-4)]GlcNAc
# Procedure, shortened: as §1
# [8] = target: Fuc(a1-3)[Gal(b1-4)]GlcNAc(b1-3)Gal(b1-4)[Fuc(a1-3)]GlcNAc
# Procedure, shortened: as §1
# [9] = target: Fuc(a1-3)[Gal(b1-4)]GlcNAc(b1-3)Gal(b1-4)[Fuc(a1-3)]GlcNAc(b1-3)Gal(b1-4)[Fuc(a1-3)]GlcNAc
# Procedure, shortened: as §1
# [10] = target: Fuc(a1-3)[Gal(b1-4)]GlcNAc(b1-3)GalNAc
# Procedure, shortened: as §1
# [11] = target: Fuc(a1-3)[Gal(b1-4)]GlcNAc(b1-6)GalNAc
# Procedure, shortened: as §1
# [12] = target: Fuc(a1-3)[Gal(b1-4)]GlcNAc(b1-6)[Gal(b1-3)GlcNAc(b1-3)]Gal(b1-4)Glc
# Procedure, shortened: as §1
# [13] = target: Fuc(a1-3)[Gal(b1-4)]GlcNAc6S
# Procedure, shortened: as §1
# [14] = target: Fuc(a1-3)[Gal3S(b1-4)]Glc
# Procedure, shortened: as §1
# [15] = target: Fuc(a1-3)[Gal3S(b1-4)]GlcNAc
# Procedure, shortened: as §1
# [16] = target: Fuc(a1-3)[Gal3S(b1-4)]GlcNAc6S
# Procedure, shortened: as §1
# [17] = target: Fuc(a1-3)[GalNAc(b1-4)]GlcNAc
# Procedure, shortened: as §1
# [18] = target: Fuc(a1-3)[GalNAc(b1-4)]GlcNAc6S
# Procedure, shortened: as §1
# Fuc(a1-4)GlcNAc = target: Fuc(a1-4)GlcNAc
# Procedure, shortened: as §1
# Fuc(b1-3)GlcNAc = target: Fuc(b1-3)GlcNAc
# Procedure, shortened: as §1
# Gal(a1-2)Gal = target: Gal(a1-2)Gal
# Procedure, shortened: as §1
# Gal(a1-3)Gal = target: Gal(a1-3)Gal
# Procedure, shortened: as §1
# Gal(a1-3)Gal(b1-3)GlcNAc = target: Gal(a1-3)Gal(b1-3)GlcNAc
# Procedure, shortened: as §1
# [19] = target: Gal(a1-3)Gal(b1-3)GlcNAc(b1-2)Man
# Procedure, shortened: as §1
# [20] = target: Gal(a1-3)Gal(b1-3)GlcNAc(b1-2)Man(a1-3)[Gal(a1-3)Gal(b1-3)GlcNAc(b1-2)Man(a1-6)]Man(b1-4)GlcNAc(b1-4)GlcNAc
# Procedure, shortened: as §1
# [21] = target: Gal(a1-3)Gal(b1-3)GlcNAc(b1-3)GalNAc
# Procedure, shortened: as §1
# [22] = target: Gal(a1-3)Gal(b1-3)GlcNAc(b1-6)GalNAc
# Procedure, shortened: as §1
# [23] = target: Gal(a1-3)Gal(b1-3)[Fuc(a1-4)]GlcNAc(b1-2)Man(a1-3)[Gal(a1-3)Gal(b1-3)[Fuc(a1-4)]GlcNAc(b1-2)Man(a1-6)]Man(b1-4)GlcNAc(b1-4)GlcNAc
# Procedure, shortened: as §1
# Gal(a1-3)Gal(b1-4)Glc = target: Gal(a1-3)Gal(b1-4)Glc
# Procedure, shortened: as §1
# Gal(a1-3)Gal(b1-4)GlcNAc = target: Gal(a1-3)Gal(b1-4)GlcNAc
# Procedure, shortened: as §1
# [24] = target: Gal(a1-3)Gal(b1-4)GlcNAc(b1-2)Man
# Procedure, shortened: as §1
# [25] = target: Gal(a1-3)Gal(b1-4)GlcNAc(b1-2)Man(a1-3)[Gal(a1-3)Gal(b1-4)GlcNAc(b1-2)Man(a1-6)]Man(b1-4)GlcNAc(b1-4)GlcNAc
# Procedure, shortened: as §1
# [26] = target: Gal(a1-3)Gal(b1-4)GlcNAc(b1-3)GalNAc
# Procedure, shortened: as §1
# [27] = target: Gal(a1-3)Gal(b1-4)GlcNAc(b1-6)GalNAc
# Procedure, shortened: as §1
# [28] = target: Gal(a1-3)Gal(b1-4)[Fuc(a1-3)]GlcNAc
# Procedure, shortened: as §1
# [29] = target: Gal(a1-3)Gal(b1-4)[Fuc(a1-3)]GlcNAc(b1-2)Man(a1-3)[Gal(a1-3)Gal(b1-4)[Fuc(a1-3)]GlcNAc(b1-2)Man(a1-6)]Man(b1-4)GlcNAc(b1-4)GlcNAc
# Procedure, shortened: as §1
# Gal(a1-3)GalNAc = target: Gal(a1-3)GalNAc
# Procedure, shortened: as §1
# [30] = target: Gal(a1-3)[Gal(a1-4)]Gal(b1-4)GlcNAc
# Procedure, shortened: as §1
# [31] = target: Gal(a1-4)Gal(b1-3)GlcNAc(b1-2)Man(a1-3)[Gal(a1-4)Gal(b1-3)GlcNAc(b1-2)Man(a1-6)]Man(b1-4)GlcNAc(b1-4)GlcNAc
# Procedure, shortened: as §1
# Gal(a1-4)Gal(b1-4)Glc = target: Gal(a1-4)Gal(b1-4)Glc
# Procedure, shortened: as §1
# Gal(a1-4)Gal(b1-4)GlcNAc = target: Gal(a1-4)Gal(b1-4)GlcNAc
# Procedure, shortened: as §1
# [32] = target: Gal(a1-4)Gal(b1-4)GlcNAc(b1-2)Man(a1-3)[Gal(a1-4)Gal(b1-4)GlcNAc(b1-2)Man(a1-6)]Man(b1-4)GlcNAc(b1-4)GlcNAc
# Procedure, shortened: as §1
# [33] = target: Gal(a1-4)Gal(b1-4)GlcNAc(b1-3)Gal(b1-4)Glc
# Procedure, shortened: as §1
# Gal(a1-4)GlcNAc = target: Gal(a1-4)GlcNAc
# Procedure, shortened: as §1
binder,measurement,setting,value
B1,glycan array binding signal (z-score),[1],-0.27
same,glycan array binding signal (z-score),Fuc(a1-3)GlcNAc,-0.151
same,glycan array binding signal (z-score),[2],-0.155
same,glycan array binding signal (z-score),[3],-0.183
same,glycan array binding signal (z-score),[4],-0.048
same,glycan array binding signal (z-score),[5],-0.298
same,glycan array binding signal (z-score),[6],0.004
same,glycan array binding signal (z-score),[7],-0.249
same,glycan array binding signal (z-score),[8],-0.174
same,glycan array binding signal (z-score),[9],-0.244
same,glycan array binding signal (z-score),[10],1.5
same,glycan array binding signal (z-score),[11],2.59
same,glycan array binding signal (z-score),[12],-0.162
same,glycan array binding signal (z-score),[13],-0.014
same,glycan array binding signal (z-score),[14],0.331
same,glycan array binding signal (z-score),[15],-0.234
same,glycan array binding signal (z-score),[16],0.918
same,glycan array binding signal (z-score),[17],-0.142
same,glycan array binding signal (z-score),[18],-0.219
same,glycan array binding signal (z-score),Fuc(a1-4)GlcNAc,-0.205
same,glycan array binding signal (z-score),Fuc(b1-3)GlcNAc,-0.27
same,glycan array binding signal (z-score),Gal(a1-2)Gal,-0.188
same,glycan array binding signal (z-score),Gal(a1-3)Gal,-0.231
same,glycan array binding signal (z-score),Gal(a1-3)Gal(b1-3)GlcNAc,-0.239
same,glycan array binding signal (z-score),[19],-0.15
same,glycan array binding signal (z-score),[20],0.636
same,glycan array binding signal (z-score),[21],-0.327
same,glycan array binding signal (z-score),[22],-0.332
same,glycan array binding signal (z-score),[23],-0.161
same,glycan array binding signal (z-score),Gal(a1-3)Gal(b1-4)Glc,-0.284
same,glycan array binding signal (z-score),Gal(a1-3)Gal(b1-4)GlcNAc,-0.115
same,glycan array binding signal (z-score),[24],-0.276
same,glycan array binding signal (z-score),[25],-0.114
same,glycan array binding signal (z-score),[26],-0.281
same,glycan array binding signal (z-score),[27],-0.318
same,glycan array binding signal (z-score),[28],-0.119
same,glycan array binding signal (z-score),[29],0.415
same,glycan array binding signal (z-score),Gal(a1-3)GalNAc,-0.147
same,glycan array binding signal (z-score),[30],-0.238
same,glycan array binding signal (z-score),[31],-0.312
same,glycan array binding signal (z-score),Gal(a1-4)Gal(b1-4)Glc,-0.213
same,glycan array binding signal (z-score),Gal(a1-4)Gal(b1-4)GlcNAc,-0.056
same,glycan array binding signal (z-score),[32],-0.157
same,glycan array binding signal (z-score),[33],-0.239
same,glycan array binding signal (z-score),Gal(a1-4)GlcNAc,0.237
